We go through one molecule from article PMC5227004, “Native ESI Mass Spectrometry Can Help to Avoid Wrong Interpretations from Isothermal Titration Calorimetry in Difficult Situations” (Journal of the American Society for Mass Spectrometry, 2016).

The target of this assay is DNA-polymerase processivity factor (β-ring) from Escherichia coli (Escherichia coli, UniProt P0A988). The assay can be described thus: Native ESI-MS titration of peptide binding to the E. coli β-ring. The note with it: βE.coli; cone voltage 100 V; fraction r3 merged with r2.
Sequence of UniProt P0A988 (P0A988 whole entry, looked up): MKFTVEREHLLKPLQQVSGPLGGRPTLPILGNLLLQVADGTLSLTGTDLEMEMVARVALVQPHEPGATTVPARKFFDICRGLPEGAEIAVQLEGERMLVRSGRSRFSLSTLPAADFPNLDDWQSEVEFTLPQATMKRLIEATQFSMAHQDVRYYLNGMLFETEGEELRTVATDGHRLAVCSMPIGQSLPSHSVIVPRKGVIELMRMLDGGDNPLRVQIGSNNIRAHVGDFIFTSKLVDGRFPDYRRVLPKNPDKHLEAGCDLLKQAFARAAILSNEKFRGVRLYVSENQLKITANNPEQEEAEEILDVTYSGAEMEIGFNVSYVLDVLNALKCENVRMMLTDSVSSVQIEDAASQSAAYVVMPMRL

As to `CC(=O)N[C@@H](CCC(N)=O)C(=O)N[C@@H](CC(C)C)C(=O)N[C@@H](CC(=O)O)C(=O)N[C@@H](CC(C)C)C(=O)N[C@@H](Cc1ccccc1)C(=O)O` [P6], the “P, probability of peptide loss due to gas-phase dissociation (GPD)” value was found to be 0.056.
